Experimental data: publication PMC4336329 (PLoS ONE, 2015)
Screen size: about 310,000 compounds; about 2,200 (0.71%) showed an effect of 50% or more. Effects have a minus sign here. Some of the results follow.

target: human ether-à-go-go-related gene (hERG) potassium channel (human, UniProt Q12809); assay: primary screen, population patch clamp on CHO cells stably expressing hERG
Sequence (Q12809 whole entry, looked up): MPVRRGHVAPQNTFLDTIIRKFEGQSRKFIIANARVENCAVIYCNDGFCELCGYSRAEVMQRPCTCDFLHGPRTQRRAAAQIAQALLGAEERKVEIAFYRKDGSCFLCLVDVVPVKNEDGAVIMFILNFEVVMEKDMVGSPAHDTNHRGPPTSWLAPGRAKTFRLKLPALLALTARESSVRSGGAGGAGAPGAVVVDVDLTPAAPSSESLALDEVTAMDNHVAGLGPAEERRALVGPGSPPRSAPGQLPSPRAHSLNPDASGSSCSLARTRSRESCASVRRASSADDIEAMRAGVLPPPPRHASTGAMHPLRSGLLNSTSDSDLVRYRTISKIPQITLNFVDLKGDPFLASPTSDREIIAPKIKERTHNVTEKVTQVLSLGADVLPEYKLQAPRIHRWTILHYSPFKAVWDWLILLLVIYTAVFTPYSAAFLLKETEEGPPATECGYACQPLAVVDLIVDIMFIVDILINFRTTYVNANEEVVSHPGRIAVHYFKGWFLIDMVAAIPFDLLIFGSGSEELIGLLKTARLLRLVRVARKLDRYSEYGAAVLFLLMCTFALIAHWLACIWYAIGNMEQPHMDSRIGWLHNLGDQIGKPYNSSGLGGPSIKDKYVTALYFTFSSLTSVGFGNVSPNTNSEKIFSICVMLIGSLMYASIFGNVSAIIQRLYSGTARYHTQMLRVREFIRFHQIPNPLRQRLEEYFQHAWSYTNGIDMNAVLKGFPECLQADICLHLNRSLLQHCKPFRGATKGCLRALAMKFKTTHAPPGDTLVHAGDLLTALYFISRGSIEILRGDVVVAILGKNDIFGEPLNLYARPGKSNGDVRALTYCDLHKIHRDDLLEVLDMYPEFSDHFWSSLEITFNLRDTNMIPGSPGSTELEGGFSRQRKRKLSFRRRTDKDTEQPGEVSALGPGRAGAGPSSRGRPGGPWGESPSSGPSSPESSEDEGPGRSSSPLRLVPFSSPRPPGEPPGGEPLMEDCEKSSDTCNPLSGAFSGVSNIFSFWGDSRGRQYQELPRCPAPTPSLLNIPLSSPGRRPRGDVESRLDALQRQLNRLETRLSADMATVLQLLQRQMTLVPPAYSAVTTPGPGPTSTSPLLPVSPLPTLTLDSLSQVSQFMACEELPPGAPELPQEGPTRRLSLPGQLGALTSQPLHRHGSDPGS

SMILES | hERG current change (%, negative = inhibition) at 1uM
COc1ccc(NC(=O)COC(=O)c2cc(=O)c3ccccc3o2)cc1OC | 3.69%
CN(C)Cc1c(C#N)c2ccccc2n1C | 8.82%
O=C1c2ccccc2C(=O)N1CCc1nc(-c2ccc(Cl)cc2)no1 | 0.0102%
CC(=O)COC(=O)CNC(=O)c1ccc(Br)cc1 | 4.38%
Cc1ccc(NS(=O)(=O)c2c(C(=O)N3CCCCCC3)c(C)n(C)c2C)cc1C | 18.3%
O=C1NC2(CCCCCC2)C(=O)N1Cc1ccccc1F | 10.5%
CS(=O)(=O)c1ccc(C(=O)NCc2ccccc2F)cc1 | 8.38%
CC(=O)Nc1cccc(C(=O)Nc2ccc(S(=O)(=O)N3CCCCC3)cc2)c1 | 3.07%
CCOc1cnc(-c2c(-c3c(Cl)cccc3Cl)noc2C)o1 | 13.8%
Cc1cc(NC(=O)c2ccc3c(c2)C(=O)N(C(C)(C)C)C3=O)no1 | 14.1%
Cc1ccc(/C=c2\sc3n(c2=O)CN(c2ccc(Br)cc2)CN=3)o1 | 11%
O=C(Cn1nnc(-c2ccccc2Cl)n1)N/N=C/c1ccc2c(c1)OCO2 | 12.5%
CC1(c2ccncc2)Nc2ccccc2-c2nc3ccccc3n21 (centres unmarked) | 12.4%
Cc1cc(C(=O)NC(C)C2CCCO2)no1 (centres unmarked) | 3.38%
COC(=O)[C@@]12CCCCN1[C@H](c1ccc(-c3cc(C(C)=O)cs3)c(OC)c1)[C@H]1C(=O)N(C)C(=O)[C@H]12.O=C(O)C(F)(F)F | 11.5%
CC(=O)Nc1ccc(NC(=S)NC(=O)/C=C/c2ccc(Cl)cc2)cc1 | 13.1%
COc1ccc(-c2nnn(CC(=O)N(CCO)C(C(=O)NC3CCCC3)c3ccc(F)cc3)n2)cc1 (centres unmarked) | 5.42%
Cc1ccc(NC(=O)C2CCN(S(=O)(=O)c3cnc[nH]3)CC2)cc1C | 0.679%
COc1ccccc1N1CCN(C(=O)c2ccc(S(=O)(=O)N3CCCCCC3)cc2)CC1 | 0.821%
O=C(Nc1ccc2c(c1)OCO2)c1nn(-c2ccccc2)c(=O)c2ccccc12 | 10.5%
COc1cccc(CNC(=O)c2cc3ccccn3n2)c1 | 3.09%
CCCCNc1ncnc2c1nnn2Cc1ccccc1Cl | 10.7%

SMILES | hERG current change (%, negative = inhibition) at 1uM
CCOC(=O)C(C)Sc1nc(=O)n2ccccc2n1 (centres unmarked) | 10%
CCCCS(=O)(=O)Nc1ccc(Cc2ccncc2)cc1 | 1.54%
O=C(N/N=C/c1ccc(OC(=O)c2ccc3c(c2)OCO3)cc1)c1cncc(Br)c1 | 4.17%
N/C(CC(=O)Nc1ccc(F)c(Cl)c1)=N\OC(=O)c1cccs1 | 13.8%
Cc1cccc(NCC(=O)N/N=C\c2c[nH]c3ccccc23)c1 | -3.49%
O=C(NC(=O)c1ccc(F)cc1F)Nc1ccc(Cl)cc1 | 16.3%
CCCCC(=O)Nc1ccc(NC(=O)c2ccccc2[N+](=O)[O-])cc1OC | -6.04%
CCc1c(C2(O)CCCCC2)[nH]c2ccc(C(=O)OC)cc12 | 13.4%
COC(=O)C(C)NC(=S)N1CC2C[C@@H](C1)Cn1c2cccc1=O (some centres unmarked) | 15.6%
COc1ccc(CCNC(=O)C2CCCN(S(=O)(=O)c3ccc(F)cc3)C2)cc1OC (centres unmarked) | 9.16%
O=C1CCC(C(=O)Nc2ccc(Cl)cc2)N1 (centres unmarked) | 17.8%
CC(=O)N/C(=C\c1ccccc1)C(=O)OCC(=O)NC(=O)c1ccccc1 | 6.41%
O=C(Nc1ccc2c(c1)C(=O)NC2=O)c1ccc(Cl)s1 | 12.3%
CNC(=O)c1sc(-c2cccnc2)nc1C | -24.6%
Cn1c2c(c(=O)c3ccccc31)CCCC2 | 10.6%
COCCCNC(=O)CN(c1ccc(OC)cc1)S(=O)(=O)c1ccc(NC(C)=O)cc1 | 13.1%
CCCN1CCC(NC(=O)Cc2ccc(C)cc2)CC1 | 7.64%
CCCCc1cc(C(=O)Cc2ccccn2)c(O)cc1O | 13.1%
CCOc1ccc(Nc2nc(Cc3nnc(SCC(N)=O)o3)cs2)cc1 | 3.2%
O=S1(=O)CC(O)C(NCCO)C1 (centres unmarked) | 6.22%
CCc1cccc(C)c1NC(=O)C1CC(=O)N(C2CCCC2)C1 (centres unmarked) | -0.876%
COc1cccc(C2C(C(=O)OC(C)C)=C(C)N=c3s/c(=C\c4ccc(C(=O)O)cc4)c(=O)n32)c1 (centres unmarked) | 2.45%

SMILES | hERG current change (%, negative = inhibition) at 1uM
Cc1ccc2cc3c(NC(=O)C(C)C)nn(C)c3nc2c1 | -0.639%
COc1cc([N+](=O)[O-])ccc1NC(=O)NCc1ccccn1 | 11.8%
CCN1C(=O)C2(SC(NC(C)=O)=NN2C(C)=O)c2cc(C)ccc21 (centres unmarked) | -0.937%
COc1ccc(C(=O)/C(C#N)=N/Nc2ccc([N+](=O)[O-])cc2)cc1 | 12.6%
N#Cc1ccc(N2CCN(C(=O)c3cccs3)CC2)c(F)c1 | -21.1%
CCCc1cc(=O)oc2cc(C)cc(OC(C)C(=O)NCc3cccnc3)c12 (centres unmarked) | -5.76%
COc1cc(C2/C(=C(\O)c3ccc4c(c3)CC(C)O4)C(=O)C(=O)N2CCCn2ccnc2)cc(OC)c1OC (centres unmarked) | 21.3%
Cc1ccc(C)c(OC(=O)c2cccnc2Cl)c1C | 12.1%
NC(N)=Nc1ccc2[nH]c3c(c2c1)C[C@@]1(O)[C@H]2Cc4ccc(O)c5c4[C@@]1(CCN2CC1CC1)[C@H]3O5.O=C(O)C(F)(F)F | 7.49%
CC(C)c1ccccc1NC(=O)CSc1n[nH]c(=O)n1C1CC1 | 9.45%
COc1ccc(CNC(=O)C(C)n2nc(C)c3c(C)n(-c4ccc(C)cc4)nc3c2=O)cc1 (centres unmarked) | 7.94%
O=C(N[C@@H](Cc1ccccc1)C(=O)N1CCC2(CC1)NCCc1[nH]cnc12)c1cccc(F)c1 | 14.5%
O=C(Cn1nnc(-c2ccccc2Cl)n1)N1CCN(S(=O)(=O)c2ccc(Cl)cc2)CC1 | -0.486%
COc1ccc(CNS(=O)(=O)c2ccc(-c3ccc(=O)[nH]n3)s2)cc1OC | -2.35%
COc1ccc(NC(=O)c2ccc(C)cc2)cc1 | 12.2%
Cc1noc(C)c1CSCC(=O)Oc1ccc(N(C)S(=O)(=O)c2ccc(Cl)cc2)cc1 | 13%
CCN(CC(=O)Nc1cc(Cl)ccc1C)C(=O)C1COc2ccccc2O1 (centres unmarked) | 13.4%
CCN1CCCC1CNC(=O)C1c2ccccc2C(=O)N(CCOC)C1c1ccc(F)cc1 (centres unmarked) | 15.7%
CCN(CC(=O)Nc1ccc2c(c1)OCCO2)Cc1cc(=O)n2ccsc2n1 | -0.0569%
CCC(CC)C(=O)Nc1cccc(C(=O)Nc2ccc3c(c2)OCO3)c1 | 15%
COc1ccc(CCNC(=O)COC(=O)C2CC2C)cc1 (centres unmarked) | 9.29%
C=C(C)c1nc(N)nc(N)n1 | 14.3%

SMILES | hERG current change (%, negative = inhibition) at 1uM
CC(C)N(CCCNC(=O)c1ccc(CS(=O)(=O)c2c(Cl)cccc2Cl)o1)Cc1ccccc1 | -34.2%
COc1cccc(CNC(=O)N[C@@H](C)C(=O)O)c1 | 10.7%
C=CCC1(Nc2ccccc2)CC(C)N(C)CC1C.O=C(O)C(=O)O (centres unmarked) | 2.05%
CC1CCN(CCNC(=O)C2CCCN(S(=O)(=O)c3cccc4nsnc34)C2)CC1 (centres unmarked) | 7.41%
CCOC(=O)N1CCN(S(=O)(=O)c2ccc(C(=O)Nc3ccc4c(c3)C(=O)NC4=O)cc2)CC1 | -0.488%
CCOc1ccc(N(CC(=O)N/N=C(\C)c2cccc(NC(C)=O)c2)S(=O)(=O)c2ccccc2)cc1 | 15.4%
CCC(C)(CC(=O)O)CC(=O)Nc1cc(C(F)(F)F)cc(C(F)(F)F)c1 (centres unmarked) | 11.6%
CCn1cc(C(=O)NCCCOC)c(=O)c2cc(S(=O)(=O)N3CCC(C)CC3)ccc21 | 10%
O=C(N/N=C/c1ccc(O)cc1)c1ccc(COc2cc(Cl)ccc2Cl)o1 | 15.4%
CC(C)C(OC(=O)CCCC(=O)Nc1nccs1)C(=O)NC1CCCCC1 (centres unmarked) | 14.2%
COC(=O)C[C@H]1c2cc(C(F)(F)F)ccc2S(=O)(=O)N1Cc1ccccc1OC | 9.81%
COc1ccccc1NC(=O)CCC(=O)Nc1ccccc1OC | 5.77%
COc1ccc(CCNC(=O)CC(C)(C)CC2=NS(=O)(=O)c3ccccc3N2)cc1OC | 11.6%
O=C(O)CN1C(=O)/C(=C\c2ccccc2OCc2ccc(F)cc2)SC1=S | 7.03%
COC(=O)c1cccn(CC(=O)c2ccc(Cl)cc2Cl)c1=O | 7.98%
COc1cccc(/C(C)=N/N=C(\C)c2cccc(OC)c2)c1 | 18.5%
COc1cccc(CC(=O)OCC(=O)N2CCN(c3ccc(F)cc3)CC2)c1 | -21.6%
O=C(O)CC1c2ccccc2C=Cc2ccccc21 | 8.55%
COc1ccc(CN2CCN(C3CCC3)CC2CCO)c(C)c1C (centres unmarked) | 11.8%
NC(=O)COC(=O)[C@H](Cc1c[nH]c2ccccc12)NC(=O)c1ccc(F)cc1 | 16.3%
